Experimental data taken from the supplement of paper PMC10338343.
± gives the standard deviation. The list shows a part of the results, in another mix than the full data.

Tested on: MIWI (PIWIL1) piRISC loaded with piRNA #1 (30 nt)
Assay: pre-steady-state target cleavage rate (min^-1); MIWI and MILI are mouse PIWI proteins and EfPiwi is from a freshwater sponge; tags in brackets are library labels; higher = faster piRNA-guided slicing of the target
Settings: guide: piRNA #1 5'p-UGAGGUAGUAGGUUGUAUAGUAUCCAGAGG; auxiliary factor: 500 nM mouse GTSF1
In short: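 At 33 °C in HEPES–potassium acetate buffer, a transcribed, DNA-blocked target RNA library […] was exposed for 0–8 or 0–960 min to 1 nM active affinity-purified piRISC carrying a single synthetic guide, with or without 500 nM GTSF1 partner protein. Uncleaved targets were sequenced and normalised to depth and to weakly complementary targets. With three trials pooled and k3 capped at 0.0001 min^-1, a burst-and-steady-state fit produced the pre-steady-state cleavage rate.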
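Also: 1 nM active piRISC with 0.1 nM target library at 33 °C single turnover.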

GGUCUCGAUACUAUACAACCUACUUCCUCA and GGAGACCUAACUUUACAACCUACUACCUGA are within error of each other in “pre-steady-state target cleavage rate” value: 0.173 ± 0.045 for the first, 0.126 ± 0.063 for the second.

First: GCUGUGGAUACUAAACAACCUACUACCUCA
Second: GCUCUGGAUACAUAACAACCUACUACCUCA
The “pre-steady-state target cleavage rate” value of the first is higher: 1.76 ± 0.13 for the first, 0.907 ± 0.092 for the second.

First: GGAGACGAUACUAUACAACCUACUACGCUCA
Second: GCUCUGGAUACUAUACAACGUACUAGCUCA
The “pre-steady-state target cleavage rate” value of the first is higher: 0.923 ± 0.067 for the first, 0.59 ± 0.054 for the second.

Compared with GGACUGGAUACUAUACAACCUACUAGCUCA, GGAGACCUAUGAUUACAAGCUACUACGUCA is lower in “pre-steady-state target cleavage rate” value: 0.0504 ± 0.011 for the first, 0.00427 ± 0.0034 for the second.

First: GGAGACCUAACAAUAGAACCUACUACCUCA
Second: GGUCUGGAUACUGUACAACCUACUACCUCA
The “pre-steady-state target cleavage rate” value of the first is lower: 0.00656 ± 0.0032 for the first, 0.683 ± 0.052 for the second.

GGACUGGAUACAAUUCAACCUACUACCUCA and GGUCUGCAUACUAUACAAGCUACUACCUCA are within error of each other in “pre-steady-state target cleavage rate” value: 1.22 ± 0.13 for the first, 1.1 ± 0.051 for the second.

Going from GGAGACCUAUGAAUACCAACCUACUACCUCA to GGAGACGAUACUAUACAACCUACUACCUGCA, the “pre-steady-state target cleavage rate” value rises from 0.0073 ± 0.0018 to 1.08 ± 0.081.

Going from GGAGAGGAUACUAUAGAACCUACUACGUCA to GGAGACGAUACUAUACAUCCUACUACCACA, the “pre-steady-state target cleavage rate” value rises from 0.143 ± 0.024 to 1.4 ± 0.076.

Compared with GGACUGGAUACUCUACAACCUACUACCUCA, CCUCUGGAAACUUUACAACCUACUACCUCA is higher in “pre-steady-state target cleavage rate” value: 1.57 ± 0.11 for the first, 1.88 ± 0.12 for the second.

Going from GGAGACCUAUGAUAUCAACCUACUGCCUCA to GGAGAGGAUAGUAUACAACCAACUACCUCA, the “pre-steady-state target cleavage rate” value rises from < 0.0001 to 0.0443 ± 0.0091.

First: GGUGUGGAUACUAUAGAACCUACUACCUCA
Second: GGAGAGGAUACAAAACAACCUACUACCUCA
The “pre-steady-state target cleavage rate” value of the first is higher: 1.35 ± 0.084 for the first, 0.787 ± 0.082 for the second.

Compared with GGAGAGCAUACUAUACAACCUACAACCUCA, GGAGACCUAUGAAUACAACCUACUACAUCA is lower in “pre-steady-state target cleavage rate” value: 0.868 ± 0.066 for the first, 0.00568 ± 0.0027 for the second.

First: GGAGACCUAUGAUAUGUUCCUACUACCAUCA
Second: CCUCUGGAUACAAUACAACCUACUACGUCA
The “pre-steady-state target cleavage rate” value of the first is lower: < 0.0001 for the first, 1.51 ± 0.087 for the second.

Compared with GGUCUGGAUACAUUACAACCUACUACCUCA, GGUCUGGAUACUAUUCAACCUACUUCCUCA is lower in “pre-steady-state target cleavage rate” value: 1.57 ± 0.12 for the first, 0.0113 ± 0.0031 for the second.

Going from GGUCUGGAUUCUAUACAACCUACUAGCUCA to GGAGACCUAUGAUAUGUACCUACUACUUCA, the “pre-steady-state target cleavage rate” value falls from 0.189 ± 0.028 to < 0.0001.

Compared with CCUCUGGAUACUAUACAACCUACAACGUCA, GGAGAGGAUACUAUUGUACCUACUACCUCA is lower in “pre-steady-state target cleavage rate” value: 0.553 ± 0.061 for the first, 0.111 ± 0.016 for the second.

Compared with GCUCUGGAUACUAUUCAAGCUACUACCUCA, CCUCUGGAUACUAUACAUCGUACUACCUCA is lower in “pre-steady-state target cleavage rate” value: 1.32 ± 0.071 for the first, 0.521 ± 0.043 for the second.

First: CCUCUGGAUACAAUACAACGUACUACCUCA
Second: GGAGACCUAACUAUACAACGUACUACCUCA
The “pre-steady-state target cleavage rate” value of the first is higher: 0.889 ± 0.061 for the first, 0.29 ± 0.032 for the second.

Compared with GGAGAUGAUACUAUACAACCUACUACCUCA, GGAGAGGAUACUAUACAACCAUCUACCUCA is lower in “pre-steady-state target cleavage rate” value: 1.86 ± 0.095 for the first, 0.0493 ± 0.01 for the second.

Compared with GGAGACCUUACAAUACAACCUACUUCCUCA, GCUCUGGUUACUAUACAUCCUACUACCUCA is higher in “pre-steady-state target cleavage rate” value: 0.0137 ± 0.0043 for the first, 1.72 ± 0.098 for the second.
